Patent publication US20230340054A1 (published 2023)

T1: human IL-2Rα (CD25), recombinant, biotinylated (human, UniProt P01589 22-213, limits assumed, biotinylated (site not stated))
T1 construct: also called human CD25 (IL-2Rα) receptor
T1 sequence (looked up): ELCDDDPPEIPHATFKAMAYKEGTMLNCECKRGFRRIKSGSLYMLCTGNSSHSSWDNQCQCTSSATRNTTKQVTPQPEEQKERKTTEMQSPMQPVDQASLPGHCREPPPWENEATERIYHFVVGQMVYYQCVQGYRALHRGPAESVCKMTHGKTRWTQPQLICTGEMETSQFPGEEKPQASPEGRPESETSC

B1: IgG fusion IL-2 mutein E15D (other)
chain: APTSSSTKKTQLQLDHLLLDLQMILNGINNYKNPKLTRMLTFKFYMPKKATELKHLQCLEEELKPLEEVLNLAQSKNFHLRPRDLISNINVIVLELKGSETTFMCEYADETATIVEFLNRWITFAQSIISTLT
B2: IgG fusion IL-2 mutein E15S (other)
chain: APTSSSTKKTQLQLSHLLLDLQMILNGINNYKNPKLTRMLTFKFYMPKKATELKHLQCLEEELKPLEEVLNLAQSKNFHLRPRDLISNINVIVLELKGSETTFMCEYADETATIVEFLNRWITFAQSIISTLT
B3: IgG fusion IL-2 mutein D20N (other)
chain: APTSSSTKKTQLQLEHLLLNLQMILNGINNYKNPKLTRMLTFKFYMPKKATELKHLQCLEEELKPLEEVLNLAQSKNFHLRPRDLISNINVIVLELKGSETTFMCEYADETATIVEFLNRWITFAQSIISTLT
B4: IgG fusion IL-2 mutein H16R (other)
chain: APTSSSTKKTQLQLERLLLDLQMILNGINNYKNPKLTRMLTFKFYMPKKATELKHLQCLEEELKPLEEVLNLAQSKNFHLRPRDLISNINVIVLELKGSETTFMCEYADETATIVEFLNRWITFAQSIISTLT
B5: IgG fusion IL-2 mutein E95Q (other)
chain: not shown
B6: IgG fusion IL-2 mutein D20T (other)
chain: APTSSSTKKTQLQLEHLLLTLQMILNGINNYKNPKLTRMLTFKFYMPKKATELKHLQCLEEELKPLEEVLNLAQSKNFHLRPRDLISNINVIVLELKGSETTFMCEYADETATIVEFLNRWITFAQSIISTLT
B7: IgG fusion IL-2 mutein N88S (other)
chain: not shown
B8: IgG fusion IL-2 mutein S87T (other)
chain: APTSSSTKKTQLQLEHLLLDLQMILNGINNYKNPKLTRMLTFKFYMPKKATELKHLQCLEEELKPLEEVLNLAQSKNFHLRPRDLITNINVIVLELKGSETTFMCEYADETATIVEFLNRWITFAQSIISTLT
B9: IgG fusion IL-2 mutein H16K (other)
chain: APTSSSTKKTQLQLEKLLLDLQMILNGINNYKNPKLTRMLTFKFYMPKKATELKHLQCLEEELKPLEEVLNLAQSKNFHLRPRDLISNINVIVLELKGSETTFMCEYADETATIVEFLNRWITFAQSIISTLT
B10: IgG fusion IL-2 mutein T111W (other)
chain: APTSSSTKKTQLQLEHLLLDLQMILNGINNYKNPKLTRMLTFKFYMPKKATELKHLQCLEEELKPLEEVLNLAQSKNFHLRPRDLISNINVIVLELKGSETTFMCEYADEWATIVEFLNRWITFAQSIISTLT
B11: IgG fusion IL-2 mutein D109H (other)
chain: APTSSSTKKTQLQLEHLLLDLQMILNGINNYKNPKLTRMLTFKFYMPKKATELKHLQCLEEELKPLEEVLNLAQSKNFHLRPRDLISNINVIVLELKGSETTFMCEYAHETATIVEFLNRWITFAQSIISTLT
B12: IgG fusion IL-2 mutein E95S (other)
chain: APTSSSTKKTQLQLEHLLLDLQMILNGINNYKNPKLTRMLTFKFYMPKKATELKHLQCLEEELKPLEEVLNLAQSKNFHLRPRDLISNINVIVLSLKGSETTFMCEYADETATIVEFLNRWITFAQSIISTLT
B13: IgG fusion IL-2 mutein P34W (other)
chain: not shown
B14: IgG fusion IL-2 mutein D109W (other)
chain: not shown
B15: IgG fusion IL-2 mutein T111N (other)
chain: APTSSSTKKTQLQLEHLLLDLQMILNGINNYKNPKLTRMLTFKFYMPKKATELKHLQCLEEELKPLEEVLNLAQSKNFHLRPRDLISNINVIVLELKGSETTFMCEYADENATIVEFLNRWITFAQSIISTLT
B16: IgG fusion IL-2 mutein E68Q (other)
chain: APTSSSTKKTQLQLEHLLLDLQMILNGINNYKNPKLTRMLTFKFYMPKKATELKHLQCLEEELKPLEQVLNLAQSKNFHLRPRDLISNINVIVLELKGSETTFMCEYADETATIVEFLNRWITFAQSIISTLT
B17: IgG fusion IL-2 mutein P34F (other)
chain: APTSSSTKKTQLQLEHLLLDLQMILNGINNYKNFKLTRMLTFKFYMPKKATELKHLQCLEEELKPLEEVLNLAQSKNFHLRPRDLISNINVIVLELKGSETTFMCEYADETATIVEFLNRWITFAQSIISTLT
B18: IgG fusion IL-2 mutein P65R (other)
chain: not shown
B19: IgG fusion IL-2 mutein P65E (other)
chain: not shown
B20: IgG fusion IL-2 mutein E95N (other)
chain: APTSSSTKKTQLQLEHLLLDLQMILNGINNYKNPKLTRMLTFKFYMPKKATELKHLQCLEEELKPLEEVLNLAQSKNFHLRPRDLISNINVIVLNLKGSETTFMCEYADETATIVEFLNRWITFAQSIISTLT
B21: IgG fusion IL-2 mutein P65Q (other)
chain: not shown
B22: IgG fusion IL-2 mutein E61W (other)
chain: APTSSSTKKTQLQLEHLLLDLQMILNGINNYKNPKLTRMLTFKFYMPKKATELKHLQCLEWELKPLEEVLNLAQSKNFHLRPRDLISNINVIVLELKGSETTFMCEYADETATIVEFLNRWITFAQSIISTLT
B23: IgG fusion IL-2 mutein T111H (other)
chain: not shown
B24: IgG fusion IL-2 mutein L12Y (other)
chain: not shown
B25: IgG fusion IL-2 mutein E68F (other)
chain: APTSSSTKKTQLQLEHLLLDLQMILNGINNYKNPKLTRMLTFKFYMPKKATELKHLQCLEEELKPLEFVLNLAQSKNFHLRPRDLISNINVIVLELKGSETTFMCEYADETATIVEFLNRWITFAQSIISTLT
B26: IgG fusion IL-2 mutein N71W (other)
chain: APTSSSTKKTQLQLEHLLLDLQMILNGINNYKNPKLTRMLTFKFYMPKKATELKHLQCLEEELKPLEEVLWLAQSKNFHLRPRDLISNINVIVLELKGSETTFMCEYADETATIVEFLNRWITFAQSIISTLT
B27: IgG fusion IL-2 mutein L72R (other)
chain: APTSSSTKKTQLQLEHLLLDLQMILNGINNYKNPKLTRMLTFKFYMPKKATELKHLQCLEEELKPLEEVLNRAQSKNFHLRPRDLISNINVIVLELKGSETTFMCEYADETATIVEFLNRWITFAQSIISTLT
B28: IgG fusion IL-2 mutein E68W (other)
chain: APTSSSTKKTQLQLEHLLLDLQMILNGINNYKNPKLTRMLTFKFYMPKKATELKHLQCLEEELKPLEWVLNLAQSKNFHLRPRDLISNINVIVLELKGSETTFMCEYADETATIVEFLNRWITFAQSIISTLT
B29: IgG fusion IL-2 mutein E106W (other)
chain: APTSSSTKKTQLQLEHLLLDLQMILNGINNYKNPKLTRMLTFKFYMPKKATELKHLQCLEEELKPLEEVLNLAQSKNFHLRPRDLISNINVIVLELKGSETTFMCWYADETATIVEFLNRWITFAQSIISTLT
B30: IgG fusion IL-2 mutein K48V (other)
chain: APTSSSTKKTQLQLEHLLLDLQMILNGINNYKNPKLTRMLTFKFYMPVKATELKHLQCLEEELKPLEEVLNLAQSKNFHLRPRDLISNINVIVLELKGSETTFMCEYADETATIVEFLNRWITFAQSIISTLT
B31: IgG fusion IL-2 mutein P34Y (other)
chain: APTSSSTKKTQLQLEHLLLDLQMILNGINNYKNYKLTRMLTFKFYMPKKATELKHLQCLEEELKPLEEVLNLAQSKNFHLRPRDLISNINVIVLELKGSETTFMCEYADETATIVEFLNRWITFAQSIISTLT
B32: IgG fusion IL-2 mutein L19V (other)
chain: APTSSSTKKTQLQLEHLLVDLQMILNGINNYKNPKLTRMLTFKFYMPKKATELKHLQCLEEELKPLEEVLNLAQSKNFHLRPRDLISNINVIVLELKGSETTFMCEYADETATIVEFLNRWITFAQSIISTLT
B33: IgG fusion IL-2 mutein D109K (other)
chain: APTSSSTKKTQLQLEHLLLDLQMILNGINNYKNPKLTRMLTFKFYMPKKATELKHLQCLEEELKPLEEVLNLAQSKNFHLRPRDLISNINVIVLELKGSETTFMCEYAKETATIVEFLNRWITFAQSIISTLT
B34: IgG fusion IL-2 mutein D109M (other)
chain: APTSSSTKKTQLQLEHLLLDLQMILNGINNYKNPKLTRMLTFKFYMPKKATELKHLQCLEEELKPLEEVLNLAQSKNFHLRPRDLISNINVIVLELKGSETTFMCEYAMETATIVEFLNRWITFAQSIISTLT
B35: IgG fusion IL-2 mutein D109R (other)
chain: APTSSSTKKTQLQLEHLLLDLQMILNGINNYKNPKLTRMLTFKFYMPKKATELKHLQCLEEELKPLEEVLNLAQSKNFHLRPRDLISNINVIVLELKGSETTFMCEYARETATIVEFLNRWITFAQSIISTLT
B36: IgG fusion IL-2 mutein M104H (other)
chain: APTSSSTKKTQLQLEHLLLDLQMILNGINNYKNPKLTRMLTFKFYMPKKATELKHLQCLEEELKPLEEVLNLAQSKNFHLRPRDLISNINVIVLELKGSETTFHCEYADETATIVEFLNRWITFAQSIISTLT
B37: IgG fusion IL-2 mutein M104I (other)
chain: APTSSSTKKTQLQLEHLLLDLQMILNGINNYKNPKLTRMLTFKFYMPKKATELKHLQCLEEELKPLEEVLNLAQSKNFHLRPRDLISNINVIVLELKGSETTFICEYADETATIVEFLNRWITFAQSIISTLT
B38: IgG fusion IL-2 mutein S87E (other)
chain: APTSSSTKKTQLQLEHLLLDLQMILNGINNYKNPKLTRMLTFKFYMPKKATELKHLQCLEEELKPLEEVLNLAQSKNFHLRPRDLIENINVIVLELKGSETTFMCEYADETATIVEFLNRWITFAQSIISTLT
B39: IgG fusion IL-2 mutein L19F (other)
chain: not shown
B40: IgG fusion IL-2 mutein E95D (other)
chain: not shown
B41: IgG fusion IL-2 mutein E95T (other)
chain: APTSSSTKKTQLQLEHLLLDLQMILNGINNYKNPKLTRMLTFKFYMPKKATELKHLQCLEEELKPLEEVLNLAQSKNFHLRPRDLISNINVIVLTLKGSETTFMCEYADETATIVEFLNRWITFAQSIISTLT
B42: IgG fusion IL-2 mutein I92V (other)
chain: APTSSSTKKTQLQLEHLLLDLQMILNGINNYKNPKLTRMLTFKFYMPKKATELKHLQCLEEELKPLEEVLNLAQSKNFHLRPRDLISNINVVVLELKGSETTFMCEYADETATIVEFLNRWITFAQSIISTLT
B43: IgG fusion IL-2 mutein L12V (other)
chain: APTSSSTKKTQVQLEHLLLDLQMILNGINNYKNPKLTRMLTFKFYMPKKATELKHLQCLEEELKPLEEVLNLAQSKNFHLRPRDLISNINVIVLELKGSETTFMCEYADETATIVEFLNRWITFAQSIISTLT
B44: IgG fusion IL-2 mutein I92W (other)
chain: not shown
B45: IgG fusion IL-2 mutein D84T (other)
chain: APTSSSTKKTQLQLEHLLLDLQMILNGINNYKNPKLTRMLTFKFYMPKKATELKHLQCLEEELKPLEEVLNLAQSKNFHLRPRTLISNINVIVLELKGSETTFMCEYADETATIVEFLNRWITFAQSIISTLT

What follows are binders tested against T1, human IL-2Rα (CD25), recombinant, … (assay: BLI).
A Kd of 148 nM, a koff of 0.0012 s⁻¹ and a kon of 8120 M⁻¹ s⁻¹ were found for B1 in this work. A Kd of 24 nM, a koff of 0.0158 s⁻¹ and a kon of 661000 M⁻¹ s⁻¹ were found for B2 in this work. A Kd of 16.3 nM, a koff of 0.0132 s⁻¹ and a kon of 805000 M⁻¹ s⁻¹ were found for B3 in this work. A Kd of 39.9 nM, a koff of 0.0185 s⁻¹ and a kon of 464000 M⁻¹ s⁻¹ were found for B4 in this work. A Kd of 13.4 nM, a koff of 0.0131 s⁻¹ and a kon of 976000 M⁻¹ s⁻¹ were found for B5 in this work. A Kd of 5.16 nM, a koff of 0.00127 s⁻¹ and a kon of 246000 M⁻¹ s⁻¹ were found for B6 in this work. A Kd of 25.4 nM, a koff of 0.0211 s⁻¹ and a kon of 829000 M⁻¹ s⁻¹ were found for B7 in this work. A Kd of 24.7 nM, a koff of 0.0148 s⁻¹ and a kon of 597000 M⁻¹ s⁻¹ were found for B8 in this work. A Kd of 32.8 nM, a koff of 0.000428 s⁻¹ and a kon of 13100 M⁻¹ s⁻¹ were found for B9 in this work. A Kd of 40.7 nM, a koff of 0.0104 s⁻¹ and a kon of 255000 M⁻¹ s⁻¹ were found for B10 in this work. A Kd of 25.8 nM, a koff of 0.000612 s⁻¹ and a kon of 23800 M⁻¹ s⁻¹ were found for B11 in this work. A Kd of 12.5 nM, a koff of 0.012 s⁻¹ and a kon of 959000 M⁻¹ s⁻¹ were found for B12 in this work. A Kd of 73.8 nM, a koff of 0.028 s⁻¹ and a kon of 380000 M⁻¹ s⁻¹ were found for B13 in this work. A Kd of 98.3 nM, a koff of 0.00188 s⁻¹ and a kon of 19100 M⁻¹ s⁻¹ were found for B14 in this work. A Kd of 921 nM, a koff of 0.0652 s⁻¹ and a kon of 70800 M⁻¹ s⁻¹ were found for B15 in this work. A Kd of 25.8 nM, a koff of 0.00773 s⁻¹ and a kon of 300000 M⁻¹ s⁻¹ were found for B16 in this work. A Kd of 40.1 nM, a koff of 0.0193 s⁻¹ and a kon of 481000 M⁻¹ s⁻¹ were found for B17 in this work. A Kd of 52.6 nM, a koff of 0.0229 s⁻¹ and a kon of 434000 M⁻¹ s⁻¹ were found for B18 in this work. A Kd of 36.8 nM, a koff of 0.0208 s⁻¹ and a kon of 565000 M⁻¹ s⁻¹ were found for B19 in this work. A Kd of 0.0073 nM, a koff of 4.88e-07 s⁻¹ and a kon of 66900 M⁻¹ s⁻¹ were found for B20 in this work. A Kd of 16.4 nM, a koff of 0.000747 s⁻¹ and a kon of 45600 M⁻¹ s⁻¹ were found for B21 in this work. A Kd of 4350 nM, a koff of 0.0112 s⁻¹ and a kon of 2570 M⁻¹ s⁻¹ were found for B22 in this work. A Kd of 29.6 nM, a koff of 0.0172 s⁻¹ and a kon of 580000 M⁻¹ s⁻¹ were found for B23 in this work. A Kd of 21.3 nM, a koff of 0.0224 s⁻¹ and a kon of 1.05e+06 M⁻¹ s⁻¹ were found for B24 in this work. A Kd of 51.2 nM, a koff of 0.0326 s⁻¹ and a kon of 636000 M⁻¹ s⁻¹ were found for B25 in this work. A Kd of 71.9 nM, a koff of 0.0108 s⁻¹ and a kon of 150000 M⁻¹ s⁻¹ were found for B26 in this work. A Kd of 13.1 nM, a koff of 0.00211 s⁻¹ and a kon of 161000 M⁻¹ s⁻¹ were found for B27 in this work. A Kd of 30.3 nM, a koff of 0.0097 s⁻¹ and a kon of 320000 M⁻¹ s⁻¹ were found for B28 in this work. A Kd of 139 nM, a koff of 0.00116 s⁻¹ and a kon of 8330 M⁻¹ s⁻¹ were found for B29 in this work. A Kd of 118 nM, a koff of 0.00278 s⁻¹ and a kon of 23700 M⁻¹ s⁻¹ were found for B30 in this work. A Kd of 30.4 nM, a koff of 0.00277 s⁻¹ and a kon of 91100 M⁻¹ s⁻¹ were found for B31 in this work. A Kd of 25.4 nM, a koff of 0.0217 s⁻¹ and a kon of 855000 M⁻¹ s⁻¹ were found for B32 in this work. A Kd of 136 nM, a koff of 0.0423 s⁻¹ and a kon of 311000 M⁻¹ s⁻¹ were found for B33 in this work. A Kd of 63 nM, a koff of 0.00842 s⁻¹ and a kon of 134000 M⁻¹ s⁻¹ were found for B34 in this work. A Kd of 43.2 nM, a koff of 0.0191 s⁻¹ and a kon of 443000 M⁻¹ s⁻¹ were found for B35 in this work. A Kd of 453 nM, a koff of 0.00143 s⁻¹ and a kon of 3150 M⁻¹ s⁻¹ were found for B36 in this work. A Kd of 0.0762 nM, a koff of 3.2e-07 s⁻¹ and a kon of 4190 M⁻¹ s⁻¹ were found for B37 in this work. A Kd of 771 nM, a koff of 0.00701 s⁻¹ and a kon of 9090 M⁻¹ s⁻¹ were found for B38 in this work. A Kd of 16.4 nM, a koff of 0.0137 s⁻¹ and a kon of 833000 M⁻¹ s⁻¹ were found for B39 in this work. A Kd of 22.8 nM, a koff of 0.0186 s⁻¹ and a kon of 818000 M⁻¹ s⁻¹ were found for B40 in this work. A Kd of 12.5 nM, a koff of 0.0102 s⁻¹ and a kon of 814000 M⁻¹ s⁻¹ were found for B41 in this work. A Kd of less than 0.001 nM, a koff of less than 1e-07 s⁻¹ and a kon of 48300 M⁻¹ s⁻¹ were found for B42 in this work. A Kd of 21.4 nM, a koff of 0.0156 s⁻¹ and a kon of 730000 M⁻¹ s⁻¹ were found for B43 in this work. A Kd of 8.96 nM, a koff of 0.00741 s⁻¹ and a kon of 827000 M⁻¹ s⁻¹ were found for B44 in this work. A Kd of 15.8 nM, a koff of 0.0106 s⁻¹ and a kon of 671000 M⁻¹ s⁻¹ were found for B45 in this work.
